Test results published in the BET-seq Pho4 binding data (Le et al. 2018).
Some of the results follow. The energies were worked out here from pooled read counts, against the library average; single values are noisy.

These sequences were tested against T1, Pho4 (S. cerevisiae) (UniProt P07270) (assay: relative binding free energy (BET-seq); higher = weaker binding). Conditions: reference: library average.
T1 sequence: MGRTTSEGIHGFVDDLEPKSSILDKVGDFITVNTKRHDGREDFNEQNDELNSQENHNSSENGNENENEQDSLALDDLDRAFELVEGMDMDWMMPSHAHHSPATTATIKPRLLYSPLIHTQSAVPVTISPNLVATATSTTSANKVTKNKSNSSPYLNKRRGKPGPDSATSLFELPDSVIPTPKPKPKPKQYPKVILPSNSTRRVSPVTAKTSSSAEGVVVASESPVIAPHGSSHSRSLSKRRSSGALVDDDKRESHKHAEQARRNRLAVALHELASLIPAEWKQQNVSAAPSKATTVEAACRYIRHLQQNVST

Sequence | relative binding free energy [kcal/mol]
CGGTACACGTGTGGGA | 0.08
TGAGCCACGTGTGCGT | -0.09
GGTAACACGTGTGGTT | 0.06
GTGTTCACGTGTTATA | 0.19
TTGCTCACGTGAGTAG | 0.37
GAGAGCACGTGTTATT | 0.03
TGCCTCACGTGTTAGT | 0.33
TGGGCCACGTGGTATT | -0.21
AGCTGCACGTGTAGGG | -0.09
TAATTCACGTGGTCAG | 0.17
TTTAGCACGTGGAGTA | -0.05
CAAGTCACGTGTTGGA | 0.11
CGGAGCACGTGAGGCG | 0.18
GTGAGCACGTGAAGAG | 0.23
GGTTGCACGTGTTGGC | 0.1
CGGGACACGTGTGTGG | 0.02
TCTGTCACGTGTGAGG | 0.1
GCGTTCACGTGGGCGT | 0.2
AGATGCACGTGTGGGA | -0.01
TTTATCACGTGGAATA | 0.2
GGATACACGTGTGTCG | 0.05
ATTTTCACGTGCGAGA | 0.3
GGTGACACGTGTTCAT | 0.03
CTTTTCACGTGAGTAA | 0.35
AGGGGCACGTGGACGC | -0.18

Sequence | relative binding free energy [kcal/mol]
TGTTTCACGTGGTGGC | 0.29
GGTGGCACGTGACTTT | 0.06
GCAATCACGTGTTTGT | 0.17
TGTGGCACGTGAGTGT | 0.08
GTGTGCACGTGTTGAT | 0.13
AAAGTCACGTGAGAGT | 0.13
TGTTCCACGTGAGCGT | 0.2
TCTTGCACGTGTTTTA | 0.06
GTGTGCACGTGGTTCT | 0.02
TGAAACACGTGGATGA | 0.06
GTGTGCACGTGACAGT | -0.01
CGCATCACGTGGTGGG | 0.1
GGTTACACGTGGAGGA | 0.19
TCGGCCACGTGGGGGG | -0.26
TTTAACACGTGGGGTT | -0.16
TGTCGCACGTGTTTGG | 0
TTGGCCACGTGGAGAG | -0.08
TTTGGCACGTGAATGG | 0.2
CAAGTCACGTGGGTGG | -0.07
ATCAGCACGTGGGATG | -0.23
GTTAGCACGTGTGTCG | 0.02
GGTAGCACGTGCTTGT | -0.05
AGAAGCACGTGGGAGT | -0.12
CGGGGCACGTGACGTG | 0.02
CATGACACGTGTGGGA | 0.02

Sequence | relative binding free energy [kcal/mol]
ATATACACGTGTTTTA | -0.05
GGGTACACGTGGAGTT | 0.04
CTGTTCACGTGATAGT | 0.27
TACGGCACGTGGTCGG | -0.05
TAGGTCACGTGGTCTG | -0.01
TCTTTCACGTGACGTT | 0.21
TAGTCCACGTGATTGA | 0.27
TATTGCACGTGCTTTT | -0.09
GAGGCCACGTGGGGTC | -0.11
TTGAACACGTGACGGG | 0.12
GTGGTCACGTGGTCAG | 0.14
GGTTGCACGTGTGGCT | 0.04
ATACGCACGTGGGAGG | -0.15
TGCATCACGTGTGCGT | 0.16
GCGTTCACGTGTGTTC | 0.29
GGAATCACGTGCGGTT | 0.1
TGATTCACGTGGGGTA | 0.09
GATTGCACGTGAGAGG | 0.28
CAGAGCACGTGTGAGT | 0.08
GGCTACACGTGGAGGG | 0.03
GGCAGCACGTGTGGGA | -0.06
CACGTCACGTGGTTGG | -0.01
TTCGCCACGTGGTTAT | 0.11
TTGGGCACGTGCTAAG | -0.02
GGCAGCACGTGAATGG | 0.29

Sequence | relative binding free energy [kcal/mol]
GAGAACACGTGTTGGA | 0.12
AGCTACACGTGTAGGT | 0.04
TGGCACACGTGTGCGG | 0.08
CTAGGCACGTGCGTTG | -0.24
CTGGTCACGTGGACTG | 0.22
AAAATCACGTGGGGAT | 0.1
ATTGTCACGTGCGATA | 0.06
ATTATCACGTGCTTGT | 0.19
CTGAGCACGTGGGTGG | -0.28
AAGGCCACGTGGTCGG | -0.18
GTGGTCACGTGTCTTC | 0.23
ACTTACACGTGGTGGG | 0.18
AATAACACGTGGGGGT | -0.09
GGAGACACGTGGGTTA | -0.25
TGAGACACGTGGAGGT | 0.01
GTTCGCACGTGTGTGT | -0.01
GATGACACGTGTTGGA | 0.14
CGGTGCACGTGTTAAG | 0.06
GATAACACGTGGGCGT | -0.05
CTTGTCACGTGGAATG | 0.09
TGTGACACGTGCTGGG | -0.06
GTAAGCACGTGTTTAT | -0.1
TGTTGCACGTGGTATA | -0.15
GCTTGCACGTGATTTT | 0.17
TAGTGCACGTGATGAG | -0.03

Sequence | relative binding free energy [kcal/mol]
TGGACCACGTGTGGAT | 0.03
GGCTTCACGTGGTAGA | 0.22
CACATCACGTGTTGGT | 0.19
AATAACACGTGGAGGG | 0.02
ATTCGCACGTGGGTGT | -0.16
GGTAGCACGTGGGTAT | -0.08
GGTAACACGTGATGGG | 0.1
GGGATCACGTGCAGGG | 0.24
GGTGTCACGTGATGTC | 0.18
CGTAACACGTGTGTAT | 0.03
AAGCGCACGTGGAGGG | -0.05
GAGGACACGTGTTGCT | 0.13
GTAGTCACGTGCGTGG | 0.05
GGGGCCACGTGGGTGC | -0.15
TCTATCACGTGGTATA | 0.14
AATGGCACGTGGTCAT | -0.19
TAAGGCACGTGTCTGG | -0.06
AGGGCCACGTGCAGGA | -0.05
ATGTTCACGTGGTTCA | 0.17
GTTAACACGTGTTTTA | 0.01
AGTTGCACGTGCGAAT | 0.11
CAGATCACGTGGTTGT | -0.02
TGGTCCACGTGAGAGT | 0.22
GTTGACACGTGCTGTG | -0.01
ATTGTCACGTGGGAGA | 0.02

Sequence | relative binding free energy [kcal/mol]
TATTTCACGTGATCGG | 0.07
AGTAGCACGTGAGTTC | 0.38
GCTTTCACGTGATGTG | 0.24
CATATCACGTGTGAGG | 0.29
GCGGACACGTGTGGTG | 0.2
AATCGCACGTGGAGGG | -0.09
AGGTGCACGTGGGCAT | -0.22
AAGAGCACGTGGGGTT | -0.16
ATGCGCACGTGGGTGT | -0.31
ATTCACACGTGGTTTA | 0.03
AATGTCACGTGGTGTG | 0.09
GTTGACACGTGTGTAA | 0.16
AGGAGCACGTGGCGGA | -0.12
GTAGTCACGTGCGTTT | 0.11
GTATACACGTGTTGTT | 0.08
CTAGACACGTGGGGTG | -0.08
TGTATCACGTGGCGAG | 0.03
TTGTGCACGTGACATT | 0.16
GGGACCACGTGTGGTG | 0.03
TTAAACACGTGTATTA | -0.06
CGAGTCACGTGGTTGT | 0.07
